The supplement of paper PMC7826260
The other results are listed elsewhere or left out. Cleavage of a single-stranded DNA pool by Rep nickase domains was read by sequencing for 1 h at 37 °C with 3 µM enzyme; only the middle of the 90-letter strands is printed. The score is log2 (uncut reads / reads without enzyme); uncut sequences lie near 0, cut ones below; no hit call is given. Reads are scaled to the total; where an enzyme cuts many sequences, the uncut ones exceed 0.

Experiments:
Experiment in all cases: uncleaved DNA left, log2 of reads against the no-enzyme library (log2 ratio); higher = less cleavage (more negative = more Rep cleavage of the k-mer); sequences stand for … in CTCGTCCG…ACCGGAGA
[1] = tested on: T1, Rep nickase domain of Muscovy duck circovirus
T1 sequence (protein, residues 1-111, tag omitted): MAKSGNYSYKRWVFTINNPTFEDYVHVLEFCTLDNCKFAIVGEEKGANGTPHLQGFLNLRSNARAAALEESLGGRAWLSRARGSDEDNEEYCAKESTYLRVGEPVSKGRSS
Procedure: (§1)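 A pool of 90-nt single-stranded DNAs with seven random bases just before the constant AC of the nick site (name = the seven bases) was cut by 3 µM recombinant His6-SUMO-tagged Rep nickase domain (300 nM DNA, 50 mM HEPES pH 8.0, 50 mM NaCl, 1 mM MnCl2, 1 h, 37 °C, three replicates). Uncut DNA was amplified and sequenced.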

[2] = tested on: T2, Rep nickase domain of banana bunchy top virus
T2 sequence (protein, residues 1-94, tag omitted): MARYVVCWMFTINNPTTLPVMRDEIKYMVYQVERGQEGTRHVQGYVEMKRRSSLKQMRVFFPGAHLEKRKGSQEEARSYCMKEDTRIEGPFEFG
Procedure: as §1

[3] = tested on: T3, Rep nickase domain of cabbage leaf curl virus
T3 sequence (protein, residues 1-116, tag omitted): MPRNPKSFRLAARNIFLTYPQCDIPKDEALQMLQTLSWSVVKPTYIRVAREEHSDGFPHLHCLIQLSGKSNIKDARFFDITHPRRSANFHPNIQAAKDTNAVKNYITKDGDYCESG
Procedure: as §1

[4] = tested on: T4, Rep nickase domain of chickpea chlorotic dwarf virus
T4 sequence (protein, residues 1-124, tag omitted): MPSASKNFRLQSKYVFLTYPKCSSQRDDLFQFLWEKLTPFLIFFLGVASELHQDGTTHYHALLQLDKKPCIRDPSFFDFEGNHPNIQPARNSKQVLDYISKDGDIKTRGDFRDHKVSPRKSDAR
Procedure: as §1

[5] = tested on: T5, Rep nickase domain of faba bean necrotic yellows virus
T5 sequence (protein, residues 1-98, tag omitted): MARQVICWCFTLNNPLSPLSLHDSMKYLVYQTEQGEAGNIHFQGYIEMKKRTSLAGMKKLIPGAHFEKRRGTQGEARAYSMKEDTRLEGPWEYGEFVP
Procedure: as §1

[6] = tested on: T6, Rep nickase domain of maize striate mosaic virus
T6 sequence (protein, residues 1-117, tag omitted): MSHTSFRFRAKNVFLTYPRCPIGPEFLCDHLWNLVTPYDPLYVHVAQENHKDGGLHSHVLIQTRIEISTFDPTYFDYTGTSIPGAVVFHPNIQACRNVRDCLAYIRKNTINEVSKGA
Procedure: as §1

[7] = tested on: T7, Rep nickase domain of porcine circovirus 2
T7 sequence (protein, residues 2-116, tag omitted): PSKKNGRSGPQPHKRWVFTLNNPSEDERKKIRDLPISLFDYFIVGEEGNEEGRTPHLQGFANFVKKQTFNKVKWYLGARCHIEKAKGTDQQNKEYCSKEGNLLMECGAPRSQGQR
Procedure: as §1

[8] = tested on: T8, Rep nickase domain of tomato golden mosaic virus
T8 sequence (protein, residues 1-124, tag omitted): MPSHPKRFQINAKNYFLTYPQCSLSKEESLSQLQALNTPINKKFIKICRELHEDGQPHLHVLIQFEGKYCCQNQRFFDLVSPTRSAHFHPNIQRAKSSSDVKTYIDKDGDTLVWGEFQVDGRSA
Procedure: as §1

[9] = tested on: T9, Rep nickase domain of tomato yellow leaf curl virus
T9 sequence (protein, residues 1-136, tag omitted): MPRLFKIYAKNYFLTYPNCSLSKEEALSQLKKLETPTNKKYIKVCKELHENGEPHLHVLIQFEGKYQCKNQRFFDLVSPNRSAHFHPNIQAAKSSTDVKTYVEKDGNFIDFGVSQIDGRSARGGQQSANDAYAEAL
Procedure: as §1

[10] = tested on: T10, Rep nickase domain of wheat dwarf virus
T10 sequence (protein, residues 1-137, tag omitted): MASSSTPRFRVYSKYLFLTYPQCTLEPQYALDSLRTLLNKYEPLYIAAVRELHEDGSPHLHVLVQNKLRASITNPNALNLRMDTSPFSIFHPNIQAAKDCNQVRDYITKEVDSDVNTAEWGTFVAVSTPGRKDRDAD
Procedure: as §1

Sequence | uncleaved DNA left (log2) [1] | uncleaved DNA left (log2) [2] | uncleaved DNA left (log2) [3] | uncleaved DNA left (log2) [4] | uncleaved DNA left (log2) [5] | uncleaved DNA left (log2) [6] | uncleaved DNA left (log2) [7] | uncleaved DNA left (log2) [8] | uncleaved DNA left (log2) [9] | uncleaved DNA left (log2) [10]
TCTCATT | -0.302 | -0.174 | -0.392 | -2.26 | -0.000821 | -0.871 | -1.67 | -0.517 | 0.0364 | -0.0384
AGCCATG | 0.03 | 0.0339 | 0.063 | 0.46 | -0.0388 | 0.925 | 0.149 | 0.0223 | -0.157 | 0.121
TGCAGTC | -0.0206 | -0.0812 | -0.0701 | -0.124 | 0.00331 | -0.681 | 0.0449 | -0.0717 | -0.115 | -0.127
GTCTGCC | 0.0307 | 0.0866 | 0.172 | 0.58 | 0.0263 | 0.678 | 0.0606 | 0.0098 | 0.068 | -0.0919
CCTAGGT | 0.0105 | -0.0396 | 0.313 | 0.978 | 0.0165 | 1.15 | 0.0192 | 0.0974 | -0.125 | -0.118
ACATCGT | -0.131 | -0.0188 | -0.827 | -1.04 | 0.0551 | -1.31 | -0.0149 | -0.0309 | -0.0509 | -0.134
AAAAGAA | 0.0275 | -0.0348 | -0.0281 | -0.425 | 0.0165 | -0.54 | 0.116 | 0.198 | -0.121 | 0.0874
ACCCAGA | 0.0697 | 0.00536 | -0.124 | -0.0775 | 0.0508 | -1.03 | 0.0742 | 0.152 | -0.0783 | -0.0313
ACACGGG | -0.0441 | -0.0148 | -0.549 | -0.0656 | 0.0883 | -0.776 | 0.192 | 0.0074 | 0.0247 | 0.00898
TGCCTTT | -0.0966 | -0.164 | -0.0365 | -1.71 | -0.0426 | -0.297 | -0.442 | -0.348 | -0.158 | -0.0935
GTAGTGG | 0.0801 | 0.0285 | 0.243 | 0.577 | 0.011 | 0.323 | 0.122 | 0.119 | 0.0422 | 0.087
CCTCGAA | 0.000146 | -0.0504 | -0.13 | -0.368 | -0.0723 | -0.88 | 0.103 | -0.0217 | -0.109 | -0.0939
GCAGAGC | -0.0172 | -0.055 | -0.222 | -0.0553 | 0.0294 | -0.812 | 0.135 | 0.126 | 0.0683 | -0.101
AAAAAGA | 0.0265 | 0.00591 | -0.0836 | -0.483 | 0.0561 | -1.06 | 0.0704 | 0.105 | 0.0156 | 0.0359
ATCGCGT | -0.0432 | -0.0438 | -0.817 | -0.0696 | -0.0822 | -0.767 | 0.136 | -0.0126 | 0.0659 | -0.0832
AGCCGGA | 0.124 | -0.0434 | 0.114 | 0.425 | 0.00351 | 0.489 | 0.00492 | -0.0207 | 0.00626 | -0.0465
CCCTTAG | 0.0162 | -0.0773 | -0.755 | -0.439 | -0.0175 | -1.4 | 0.0656 | 0.0317 | 0.131 | 0.0034
TGACCGC | 0.0012 | 0.0121 | 0.0423 | 0.0529 | -0.0577 | -0.222 | -0.0884 | -0.128 | 0.0448 | 0.0501
GCCTAAC | 0.058 | -0.0585 | -0.208 | -0.407 | 0.0245 | 0.0591 | -0.0484 | -0.0752 | -0.00485 | 0.00709
GCGATTA | 0.102 | 0.0738 | 0.129 | 0.385 | 0.0544 | 0.785 | 0.109 | 0.0339 | 0.0368 | 0.0464
ATCTCGA | -0.0592 | -0.0308 | -0.429 | -0.588 | -0.0319 | -1.06 | 0.0454 | 0.0588 | -0.0876 | -0.0823
ACCGACA | 0.0181 | 0.125 | -0.078 | -0.613 | 0.0683 | -0.604 | 0.121 | 0.0509 | -0.0875 | -0.114
TTCAAGA | 0.00394 | 0.000408 | 0.246 | 0.278 | 0.0631 | -0.458 | 0.0353 | 0.0315 | 0.0457 | 0.0469
AGTGACC | 0.085 | 0.0643 | 0.0241 | 0.672 | -0.0746 | 1.11 | 0.0562 | 0.0595 | -0.109 | -0.0583
CGAGCCC | 0.0259 | -0.0461 | 0.136 | 0.308 | 0.0228 | 0.22 | -0.142 | -0.00143 | -0.0766 | 0.000718
CGCCGCC | -0.138 | -0.0379 | -0.0742 | -0.133 | -0.102 | -0.361 | -0.128 | -0.283 | -0.147 | -0.0973
GATAAGC | 0.121 | 0.102 | 0.0931 | 0.179 | 0.201 | -0.439 | 0.256 | 0.0873 | 0.102 | 0.0736
ACATTAG | 0.00129 | -0.0374 | -0.589 | 0.25 | 0.0394 | -0.654 | 0.131 | 0.0222 | 0.0171 | -0.0565
TCCAAGA | 0.123 | 0.0101 | 0.113 | 0.238 | 0.11 | -0.64 | 0.201 | 0.0941 | 0.0911 | 0.0363
ACGTTAG | -0.0744 | -0.124 | -0.845 | -0.554 | -0.0316 | -1.33 | 0.194 | -0.143 | 0.0173 | -0.169
